The results in this text go back to the BET-seq Pho4 binding data (Le et al. 2018).

The list shows a part of the results. These are noisy estimates, calculated here from bound and input reads.

The target in the test is T1, Pho4 (S. cerevisiae) (UniProt P07270).
T1 sequence: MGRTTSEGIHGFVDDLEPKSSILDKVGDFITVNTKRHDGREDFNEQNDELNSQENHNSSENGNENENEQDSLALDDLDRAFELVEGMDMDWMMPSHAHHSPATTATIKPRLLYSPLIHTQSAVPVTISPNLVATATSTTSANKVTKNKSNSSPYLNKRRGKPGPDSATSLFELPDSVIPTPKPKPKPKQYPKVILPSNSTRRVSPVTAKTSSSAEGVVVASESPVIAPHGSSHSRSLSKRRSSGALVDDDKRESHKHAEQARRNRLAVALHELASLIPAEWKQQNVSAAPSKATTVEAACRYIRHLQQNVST
Nature of the test: relative binding free energy (BET-seq); higher = weaker binding. Conditions: reference: library average.
Turning to GTGGGCACGTGAGGCC, the “relative binding free energy” value worked out at 0.14 kcal/mol.

As for TGGATCACGTGCGGCG, the “relative binding free energy” value turned out to be 0.16 kcal/mol.

With TTATTCACGTGGGAGT, the “relative binding free energy” value amounted to 0.14 kcal/mol.

For ATAGTCACGTGATTTA, the “relative binding free energy” value stood at 0.17 kcal/mol.

For TTTATCACGTGGAGTG, the “relative binding free energy” value stood at 0.14 kcal/mol.

Consider TTAGCCACGTGGGAGG, for which the “relative binding free energy” value was -0.29 kcal/mol.

Take TGGGGCACGTGTTCAT: the “relative binding free energy” value was -0.11 kcal/mol.

In the case of GTTGTCACGTGTACAG, the “relative binding free energy” value was 0.09 kcal/mol.

Consider AAGTACACGTGTTGTG, for which the “relative binding free energy” value is -0.02 kcal/mol.

Turning to GGGAGCACGTGCAGTT, the “relative binding free energy” value was -0.08 kcal/mol.

Regarding AAGATCACGTGTTTTT, the “relative binding free energy” value was 0.19 kcal/mol.

On to TAGTGCACGTGAATGA, for which the “relative binding free energy” value came out at 0.26 kcal/mol.

Regarding TTTAACACGTGGATTT, the “relative binding free energy” value was 0.11 kcal/mol.

Consider CTGTACACGTGAGGTA, for which the “relative binding free energy” value came to 0.17 kcal/mol.

Take TTTCGCACGTGGGGAA: the “relative binding free energy” value was -0.13 kcal/mol.

For GAAGGCACGTGTTGAT, the “relative binding free energy” value is -0.14 kcal/mol.

Turning to GAGTGCACGTGTTGGG, the “relative binding free energy” value is 0.09 kcal/mol.

With GTTACCACGTGGTTGT, the “relative binding free energy” value is -0.04 kcal/mol.

As for TGGATCACGTGGCCTG, the “relative binding free energy” value was found to be 0.15 kcal/mol.

Take ACATTCACGTGGGTTT: the “relative binding free energy” value came to 0.17 kcal/mol.

For TGTTCCACGTGTGATG, the “relative binding free energy” value was -0.02 kcal/mol.

As for ACGAGCACGTGTTGGG, the “relative binding free energy” value worked out at 0.02 kcal/mol.

In the case of TCGATCACGTGGGGTT, the “relative binding free energy” value was 0.02 kcal/mol.

In the case of TTCATCACGTGGTCGG, the “relative binding free energy” value is 0.18 kcal/mol.

In the case of TGGCTCACGTGGAAGT, the “relative binding free energy” value was 0.19 kcal/mol.

For AGCTTCACGTGCAGTG, the “relative binding free energy” value was 0.35 kcal/mol.

Take AGAGGCACGTGAAGTG: the “relative binding free energy” value is 0.15 kcal/mol.

In the case of ATGTGCACGTGGGCGG, the “relative binding free energy” value was -0.24 kcal/mol.

For the sequence TGCTTCACGTGAGTTT, the “relative binding free energy” value turned out to be 0.35 kcal/mol.

GTTTTCACGTGGGGAT: the “relative binding free energy” value was found to be 0.3 kcal/mol.

In the case of TTTTTCACGTGAGCAG, the “relative binding free energy” value amounted to 0.33 kcal/mol.

For AGGCGCACGTGTTAGG, the “relative binding free energy” value was -0.08 kcal/mol.

Regarding TAGTTCACGTGTGAGG, the “relative binding free energy” value is 0.32 kcal/mol.

On to GTGGTCACGTGATAGT, for which the “relative binding free energy” value was 0.25 kcal/mol.

As for ATTCACACGTGTTGTA, the “relative binding free energy” value was 0.19 kcal/mol.

Consider GGGTCCACGTGGTATT, for which the “relative binding free energy” value was -0.08 kcal/mol.

With TCGAACACGTGGGTTT, the “relative binding free energy” value was determined as 0 kcal/mol.

As for TTATGCACGTGTGAGG, the “relative binding free energy” value was 0.14 kcal/mol.

Regarding AATATCACGTGGAGTT, the “relative binding free energy” value stood at 0.3 kcal/mol.

Take AGTAGCACGTGCGGTT: the “relative binding free energy” value came to 0.01 kcal/mol.

As for GAGTCCACGTGGGGGC, the “relative binding free energy” value was -0.03 kcal/mol.

Regarding TAAGGCACGTGGTATG, the “relative binding free energy” value is -0.21 kcal/mol.

For the sequence GTCGGCACGTGTCGGG, the “relative binding free energy” value was determined as 0.08 kcal/mol.

As to TAGAGCACGTGGGATG, the “relative binding free energy” value was -0.14 kcal/mol.

Regarding CTGGTCACGTGTCGGG, the “relative binding free energy” value was 0.08 kcal/mol.

As to TGGTACACGTGTTTGA, the “relative binding free energy” value was 0.1 kcal/mol.

Take TAGTGCACGTGGCCGT: the “relative binding free energy” value was -0.15 kcal/mol.

Consider GTGTACACGTGCTGTG, for which the “relative binding free energy” value is -0.02 kcal/mol.

For GGATTCACGTGGGGCT, the “relative binding free energy” value amounted to 0.15 kcal/mol.

As for GGTTACACGTGTGAGC, the “relative binding free energy” value stood at 0.31 kcal/mol.

With TGGCACACGTGCTGGT, the “relative binding free energy” value is -0.01 kcal/mol.

Take TTTTTCACGTGTTTCT: the “relative binding free energy” value was 0.27 kcal/mol.

Take GGGAGCACGTGGATGG: the “relative binding free energy” value is -0.15 kcal/mol.

With AGTGTCACGTGCGGTA, the “relative binding free energy” value is -0.09 kcal/mol.

Consider GTATGCACGTGCTTTG, for which the “relative binding free energy” value was -0.08 kcal/mol.

On to TGTTGCACGTGTGGCC, for which the “relative binding free energy” value was found to be 0.03 kcal/mol.

On to TAATGCACGTGCAGTG, for which the “relative binding free energy” value came out at 0.07 kcal/mol.

For the sequence AGGTTCACGTGTTACG, the “relative binding free energy” value amounted to 0.39 kcal/mol.

With TCGATCACGTGAAGGG, the “relative binding free energy” value stood at 0.35 kcal/mol.

As to AAATGCACGTGTATTT, the “relative binding free energy” value was 0.03 kcal/mol.

On to TATGACACGTGAGTAT, for which the “relative binding free energy” value is 0.21 kcal/mol.

Regarding GGAAGCACGTGCTGTT, the “relative binding free energy” value is -0.11 kcal/mol.

Turning to ATATTCACGTGTGAGC, the “relative binding free energy” value worked out at 0.35 kcal/mol.

As to GTTCTCACGTGTCGGG, the “relative binding free energy” value is 0.43 kcal/mol.

As to GGTGCCACGTGTGGAA, the “relative binding free energy” value is 0.12 kcal/mol.

Regarding CGTGTCACGTGCTTTT, the “relative binding free energy” value was found to be 0 kcal/mol.

For the sequence GTGTTCACGTGGTGGG, the “relative binding free energy” value was determined as 0.24 kcal/mol.

Take GTGATCACGTGAAGAG: the “relative binding free energy” value worked out at 0.32 kcal/mol.

In the case of ATGAACACGTGGGCTG, the “relative binding free energy” value is -0.12 kcal/mol.

GTAGCCACGTGTTAGG: the “relative binding free energy” value is -0.12 kcal/mol.

Consider TCCAACACGTGGGGGG, for which the “relative binding free energy” value was -0.05 kcal/mol.

Regarding ACAGGCACGTGGGTAA, the “relative binding free energy” value is -0.28 kcal/mol.

For the sequence ATGGTCACGTGTCAGT, the “relative binding free energy” value is 0.15 kcal/mol.

In the case of ATGAGCACGTGGGTGA, the “relative binding free energy” value was -0.24 kcal/mol.

Consider CGTGACACGTGTGTGT, for which the “relative binding free energy” value was 0.13 kcal/mol.

Turning to AGGCTCACGTGTGGAG, the “relative binding free energy” value came to 0.24 kcal/mol.

For the sequence TGAGGCACGTGTTAAT, the “relative binding free energy” value is -0.01 kcal/mol.

In the case of ATACTCACGTGGGCGG, the “relative binding free energy” value stood at 0.19 kcal/mol.

ATTATCACGTGGAATG: the “relative binding free energy” value is 0.32 kcal/mol.

Turning to CGGACCACGTGGAGGG, the “relative binding free energy” value was 0.19 kcal/mol.

As to TGTTACACGTGGGATG, the “relative binding free energy” value is 0.06 kcal/mol.

As for GTACTCACGTGTGTTT, the “relative binding free energy” value is 0.3 kcal/mol.

TTGTACACGTGGTAGC: the “relative binding free energy” value was -0.09 kcal/mol.

On to ATGTACACGTGTTGGC, for which the “relative binding free energy” value is 0.02 kcal/mol.

Consider AAATACACGTGGTGAT, for which the “relative binding free energy” value was 0.06 kcal/mol.

For the sequence TTTTTCACGTGCGTCG, the “relative binding free energy” value turned out to be 0.04 kcal/mol.

In the case of GGCAGCACGTGAGGGT, the “relative binding free energy” value is 0.17 kcal/mol.

For GCTTGCACGTGGTGGA, the “relative binding free energy” value is -0.03 kcal/mol.

TTATTCACGTGAACGG: the “relative binding free energy” value worked out at 0.33 kcal/mol.

AGCGGCACGTGGGAAT: the “relative binding free energy” value was -0.19 kcal/mol.

As for ATATTCACGTGCGTGG, the “relative binding free energy” value was found to be 0.09 kcal/mol.

For TGTTGCACGTGAATTT, the “relative binding free energy” value amounted to 0.29 kcal/mol.

As to ATGGGCACGTGCGTGC, the “relative binding free energy” value is -0.18 kcal/mol.

TGGGGCACGTGCAGTA: the “relative binding free energy” value is -0.12 kcal/mol.

With TTTAGCACGTGTGGGG, the “relative binding free energy” value worked out at 0 kcal/mol.

Consider ATAGGCACGTGGCTAG, for which the “relative binding free energy” value is -0.26 kcal/mol.

As for GTTCGCACGTGGTCAG, the “relative binding free energy” value was -0.07 kcal/mol.

As to TGTAACACGTGCTGAT, the “relative binding free energy” value came out at 0.01 kcal/mol.

TATGGCACGTGAGGGG: the “relative binding free energy” value was 0.12 kcal/mol.

In the case of TTGTCCACGTGATAGA, the “relative binding free energy” value was 0.38 kcal/mol.

Consider GAGTTCACGTGTGCGT, for which the “relative binding free energy” value is 0.09 kcal/mol.

Take GGTGTCACGTGTTTAC: the “relative binding free energy” value is 0.12 kcal/mol.

For GAGCACACGTGTTGGG, the “relative binding free energy” value was determined as 0.21 kcal/mol.

For the sequence GTGGGCACGTGTCGCG, the “relative binding free energy” value is -0.06 kcal/mol.

CATGTCACGTGGATTA: the “relative binding free energy” value stood at 0.25 kcal/mol.

As to GTTGGCACGTGGTACG, the “relative binding free energy” value was -0.13 kcal/mol.

In the case of TGCGTCACGTGGGCTT, the “relative binding free energy” value was -0.07 kcal/mol.

TGTGACACGTGGGGTA: the “relative binding free energy” value is -0.13 kcal/mol.

For the sequence TCAGTCACGTGGTGAA, the “relative binding free energy” value was 0.1 kcal/mol.

Turning to TTTTGCACGTGTGCGA, the “relative binding free energy” value was -0.02 kcal/mol.

For AATGACACGTGAGATG, the “relative binding free energy” value was 0.31 kcal/mol.

As for TTCGGCACGTGGCAGG, the “relative binding free energy” value was -0.15 kcal/mol.

On to TTATACACGTGTAGTA, for which the “relative binding free energy” value is 0 kcal/mol.

Turning to TAGGGCACGTGGATCT, the “relative binding free energy” value was -0.11 kcal/mol.

Take TTTGACACGTGGGAAA: the “relative binding free energy” value is -0.04 kcal/mol.
